# Experimental data as given in the supplement of paper PMC6531468.
# The list shows a part of the results. These are enrichments in a pooled selection; single values are uncertain. Each score is taken over the longer molecules that contain the sequence shown.
# Test system: IMP3 KH1-2
# Assay: 6-mer SELEX enrichment z-score vs GST control; IMP3 is the RNA-binding protein IGF2BP3; higher = more enriched by binding
# Details: construct: KH1-2 (164-376); SELEX round: R4
# Description: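 SELEX-seq with GST-tagged IMP3 KH1-2 (Pro164-Phe376) and an N40 RNA pool, round 4 (stringent 300/600 mM KCl washes). 6-mer z-score of sequence-tag enrichment normalised to the corresponding GST SELEX round; RNA k-mers written as DNA (T for U).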
# Sequence of IMP3 KH1-2 (chain, as listed by the source): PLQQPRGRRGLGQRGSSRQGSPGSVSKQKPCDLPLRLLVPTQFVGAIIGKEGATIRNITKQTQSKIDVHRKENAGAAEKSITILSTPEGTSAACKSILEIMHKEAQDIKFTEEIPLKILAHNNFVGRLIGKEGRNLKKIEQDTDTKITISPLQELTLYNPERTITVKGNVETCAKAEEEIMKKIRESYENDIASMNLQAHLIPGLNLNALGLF
row,Sequence,6-mer SELEX enrichment z-score
1,CTAAGA,-0.291
2,TTGACT,-0.175
3,AACTGG,-0.209
4,TGCGCT,-0.023
5,CACATT,2.62
6,TGTTAG,0.062
7,TTTCCT,0.99
8,AATGCC,-0.737
9,CAATTG,-0.161
10,GTTGTA,-0.156
11,TTTGCA,0.641
12,GTGCAC,0.297
13,GGTTGC,0.005
14,ACCGCA,0.804
15,GTTTCC,-0.358
16,ACGTAC,-1.21
17,GTCCTT,0.173
18,GTCGAC,-0.414
19,AATTCC,0.906
20,CTCGAA,-1.91

row,Sequence,6-mer SELEX enrichment z-score
1,GGTAAG,0.164
2,ATTCCC,-0.022
3,GGGTCC,0.042
4,TTTGAA,0.312
5,TCGCCG,-0.056
6,ACTATG,0.628
7,TACCAT,0.296
8,CGATTT,0.198
9,GAGGTC,0.334
10,CTCGAG,-0.568
11,CTGTAG,-0.31
12,AGCTAC,-0.441
13,GTCAAA,-1.02
14,CTTTCC,0.666
15,AGTGGG,0.578
16,GTCCAT,0.431
17,CGAATT,-0.134
18,TGTCTG,-0.066
19,TGCGGC,0.728
20,TCTTGC,-0.427
